From PubChem BioAssay AID1030 (National Center for Advancing Translational Sciences (NCATS), 2008)
Where “and” joins values, the source holds several entries; their conditions need not be identical. Equal values may be shown once. Screen size: about 220,000 compounds; about 16,000 (7.3%) were called active. The inconclusive results got no clear call from the source; some entries with a clear call stand among them for comparison. Calls come from the whole dose curve; as a rule, active = well fitted inhibition curve with a large enough effect (not every such curve was filed as active); inconclusive = small, poorly fitted or top-dose-only effect, or another doubt; inactive = no such curve, though single readings can be large or run the other way. A potency beside an inconclusive call is a rough fit, not a confirmed value.

biological target: Aldehyde dehydrogenase 1A1 (Homo sapiens) (UniProt P00352); experiment: qHTS Assay for Inhibitors of Aldehyde Dehydrogenase 1 (ALDH1A1); conditions: Purified ALDH1A1, NADH fluorescence, propionaldehyde substrate; series mostly up to 75.3 µM;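 for activity, negative = inhibition: plate controls were no enzyme wells and a reference inhibitor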
Potency is the fitted concentration of half-maximal effect; tags give direction and shape of the fitted curve.

UniProt P00352, sequence (P00352 whole entry, looked up): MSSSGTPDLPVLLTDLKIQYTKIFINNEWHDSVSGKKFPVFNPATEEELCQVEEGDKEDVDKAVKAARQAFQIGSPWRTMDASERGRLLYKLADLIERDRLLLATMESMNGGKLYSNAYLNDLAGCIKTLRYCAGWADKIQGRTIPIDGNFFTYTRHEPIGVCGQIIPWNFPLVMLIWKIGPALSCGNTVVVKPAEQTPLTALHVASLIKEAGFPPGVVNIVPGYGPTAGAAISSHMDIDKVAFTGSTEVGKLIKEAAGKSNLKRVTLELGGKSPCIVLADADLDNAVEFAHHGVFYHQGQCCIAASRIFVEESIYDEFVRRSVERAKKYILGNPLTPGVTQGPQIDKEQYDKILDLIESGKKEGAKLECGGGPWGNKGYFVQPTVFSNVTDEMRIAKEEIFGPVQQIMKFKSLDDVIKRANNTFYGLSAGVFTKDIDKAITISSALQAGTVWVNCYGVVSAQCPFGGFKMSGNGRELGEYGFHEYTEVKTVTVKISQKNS

| SMILES | Potency | activity, negative = inhibition |
| --- | --- | --- |
| CCN(CCCNC(=O)CSc1cc(=O)n(C)c2cc(Cl)ccc12)Cc1ccccc1 | inactive |  |
| CSC1=NCCN1C(=O)c1ccc(S(=O)(=O)N2CCCC2)cc1 | inconclusive: 10 µM [inhibitor, partial curve, poor fit] |  |
| CCOC(=O)c1sc2nc3c(SCCC(=O)O)cc(C(=O)c4cc(OC)ccc4O)cn3c(=O)c2c1C | inactive |  |
| Cc1ccc(-c2nc3cnccn3c2Nc2ccc3c(c2)OCCO3)o1 | active: 12.6 µM |  |
| O=C(CSc1nnc2ccccn12)Nc1ccccc1C(=O)NC1CC1 | inconclusive: 28.2 µM [inhibitor, single point] |  |
| Cn1nnnc1SCC(=O)Nc1nn(-c2ccccc2)nc1C(N)=O | inconclusive: 28.2 µM [inhibitor, single point] |  |
| COc1cc2c(C(=O)NC3CCCCCC3)cn(C)c(=O)c2cc1OC | inconclusive: 10 µM [inhibitor, partial curve] |  |
| COCCn1c(=NC(=O)c2ccc(S(=O)(=O)N3CCc4ccccc4C3)cc2)sc2cc(OC)ccc21 | inconclusive: 3.55 µM [inhibitor, single point] |  |
| COC(=O)CSc1nnc2c3c4c(sc3nc(-n3nc(C)cc3C)n12)COC(C)(C)C4 | inconclusive: 39.8 µM [inhibitor, single point] |  |
| CCC1C(=O)CC(c2ccc([N+](=O)[O-])cc2)NC1c1ccc([N+](=O)[O-])cc1 (stereo not drawn) | inconclusive: 12.6 µM [inhibitor, partial curve] |  |
| COc1ccc(CC(=O)O/N=C(\N)Cc2ccc(OC)c(OC)c2)cc1 | inconclusive: 17.8 µM [inhibitor, partial curve] |  |
| CCOc1ccc(NC(=O)CC2C(=O)N(c3ccc(OC)cc3)C(=O)N2CCc2ccc(OC)c(OC)c2)cc1 (stereo not drawn) | inconclusive: 11.2 µM [inhibitor, partial curve] |  |
| CN(c1ccccc1)S(=O)(=O)c1ccc(C(=O)NCC2CCCO2)cc1 (stereo not drawn) | inactive |  |
| O=C(CSc1ccc(Cl)cc1)N1CCN(c2ccc([N+](=O)[O-])cc2Cl)CC1 | active: 20 µM |  |
| CCC(C)(C)NC(=O)c1cc([N+](=O)[O-])ccc1N1CCOCC1 | inactive |  |
| CC(C)OCCCNC(=O)c1ccc2c(c1)ncn2C1CCCC1 | inconclusive: 44.7 µM [inhibitor, single point] |  |
| CCOC(=O)Cc1csc(NC(=O)c2sc3nc4ccc(CC)cc4cc3c2N)n1 | inactive |  |
| COC(=O)c1cccc(NC(=S)NCCC2=CCCCC2)c1 | active: 28.2 µM |  |
| COc1ccc(C(=O)Nc2cc(=O)n(C)c(=O)n2C)cc1 | inconclusive: 44.7 µM [inhibitor, single point] |  |
| O=C(Nc1ccccn1)c1cc(-c2cccc(Cl)c2)nc2ccccc12 | inconclusive: 39.8 µM [inhibitor, single point] |  |
| O=C(CSCc1ccc(Cl)cc1)Nc1ccc(S(=O)(=O)N2CCCCCC2)cc1 | inconclusive: 17.8 µM [inhibitor, partial curve] |  |
| Cc1ccc(-c2csc(=S)n2CC(=O)OCC(=O)NCc2ccco2)cc1 | inconclusive: 25.1 µM [inhibitor, single point] |  |

| SMILES | Potency | activity, negative = inhibition |
| --- | --- | --- |
| CC(=O)c1cc(C#N)c(Oc2cc(C)cc(C)c2)nc1C | inactive |  |
| COC(=O)[C@H](Cc1ccccc1)NC(=O)O[C@H]1C(=O)c2ccc(OC)cc2O[C@@H]1c1ccc2c(c1)OCO2 | inactive |  |
| Cc1cccc(N(CC(=O)N=Nc2c(O)[nH]c3ccccc23)S(C)(=O)=O)c1C | inconclusive: 17.8 µM [inhibitor, partial curve] |  |
| Nc1nc(=O)c2[nH]cnc2n1O |  | inactive: 0.799% [at 13.5 µM] |
| COCc1cc(=O)[nH]c2cc(NC(=O)C(C)(C)CCl)c(C)cc12 | inconclusive: 39.8 µM [inhibitor, single point] |  |
| CCN(CC)CC#CC(C)OCOCC#CCOC (stereo not drawn) | inactive |  |
| COc1ccc(CCNc2cc(N3CCN(C(=O)c4ccccc4F)CC3)ccc2[N+](=O)[O-])cc1OC | active: 2.51 µM |  |
| Cc1ccc(S(=O)(=O)N(C)c2ccc(C(=O)N3CCc4ccccc4C3)cc2)cc1 | inactive |  |
| C[C@@H]1O[C@H](O[C@@H]2\C=C/C=C\C=C/C=C\C[C@H](C)OC(=O)/C=C\[C@H]3O[C@@H]3C[C@H](O)C[C@]3(O)C[C@@H](O)[C@@H](C(=O)O)[C@H](C2)O3)[C@@H](O)[C@H](N)[C@@H]1O (stereo in doubt) | inactive |  |
| O=C(c1ccco1)N1CCN(C(=O)c2cnn3c(C(F)(F)F)cc(-c4cccs4)nc23)CC1 | inconclusive: 14.1 µM [inhibitor, partial curve] |  |
| CCn1cc(/C=C(/C#N)S(=O)(=O)c2ccccc2)cn1 | inconclusive: 39.8 µM [inhibitor, single point] |  |
| Cc1ccc(S(=O)(=O)c2c(N)n(CCCO)c3nc4ccccc4nc23)cc1 | inconclusive: 22.4 µM [inhibitor, partial curve] |  |
| COC(=O)c1c(C)[nH]c(C(=O)OCC(=O)N2c3ccccc3NC(=O)C2(C)C)c1C | inconclusive: 17.8 µM [inhibitor, partial curve] |  |
| O=C1CN(S(=O)(=O)c2ccc(Cl)cc2)CC(=O)N1CCc1ccccc1 | inactive |  |
| COc1ccccc1C(=O)C1CCCN(Cc2cn[nH]c2C2CCCCC2)C1 (stereo not drawn) | inactive |  |
| O=C(O)COc1ccc(/C=N/NC(=O)C2CCCN2S(=O)(=O)c2ccc(Cl)cc2)cc1 (stereo not drawn) | inactive |  |
| CCOC(=O)Nc1nnc(-c2cccc(OC)c2)s1 | inconclusive: 12.6 µM [inhibitor, partial curve] |  |
| CCN(CC)S(=O)(=O)c1ccc(N2CCOCC2)c(NC(=O)c2ccc(F)cc2)c1 | inconclusive: 25.1 µM [inhibitor, single point] |  |
| CCn1c(C)c(C)c2cc(C(=O)Nc3cccc(Cl)c3)ccc21 | inconclusive: 35.5 µM [inhibitor, partial curve] |  |
| Cn1c(C(=O)N2CCCCCC2)cc2c(=O)n(C)c3ccccc3c21 | inconclusive: 39.8 µM [inhibitor, single point] |  |
| COC(=O)C[C@H]1c2ccccc2C2=C(C[C@@H](C)[C@H]3C(=O)N(c4ccccc4)C(=O)[C@@H]23)N1C(=O)OC | inconclusive: 4.47 µM [inhibitor, partial curve] and inconclusive: 3.16 µM [inhibitor, single point] |  |
